Laboratory results from patent publication US20220307013A1, “GENE FRAGMENT OVER[…] METHODOLOGIES, AND USES THEREOF” (priority 2019, published 2022).

How the values were obtained:
MCF-7 cells = conditions: previous reports; cited from earlier work
MDA-MB-231 cells = experiment: WST-8 cell viability, exogenously delivered TAT-conjugated peptides, MDA-MB-231; type: cell-based; conditions: TAT-conjugated peptide 0-100 μM, 24 hours
Protocol: (§1) Engineering Peptides for Exogenous Delivery. Peptides shown in FIG. 3B were fused to an N-terminal cell penetrating motif via a (GS)3 linker sequence (Table 5) and chemically synthesized by GenScript's Custom Peptide Synthesis service at crude purity. For dose response experiments, cells were plated in 96 well plates (n=4) at 50% confluency and peptides were added at the indicated concentrations with cell viability quantified after 24hrs via the WST-8 assay. Cell viability was normalized to that of an untreated control on the same plate.
as §1, with “2D” for “3B”, “sequence” for “sequence (Table 5)”
(§2) After validating the inhibitory activity of these peptide constructs when overexpressed genetically, experiments were performed to see if the peptides could be exogenously delivered as anti-cancer therapeutics. […] (FIG. 4C, Table 6). […]

Hs578T cells [1] = experiment: RNA-sequencing of Hs578T cells overexpressing gene fragment; conditions: FDR=0.008 and FDR=0.058 respectively
Hs578T cells [2] = experiment: WST-8 cell viability, exogenously delivered TAT-conjugated peptides, Hs578T; type: cell-based; conditions: TAT-conjugated peptide 0-100 μM, 24 hours
Protocol: as §1
as §1, with “2D” for “3B”, “sequence” for “sequence (Table 5)”
as §2

COc1cc2ncnc(Nc3ccc(F)c(Cl)c3)c2cc1OCCCN1CCOCC1 [Gefitinib]
sensitivity of MCF-7 cells compared with Hs578T and MDA-MB-231 cells (MCF-7 cells): less sensitive

MEAPNQALLRILKETEFKKIKVLGSGAFGTVYKGLWIPEGE [EGFR-697]
cell viability / growth inhibition (MDA-MB-231 cells): inhibit the growth of Hs578T and MDA-MB-231 cells in a dose dependent manner
GSEA of gene sets responding to irreversible EGFR inhibitor (Hs578T cells [1]): downregulation of genes identified as downregulated in response to chemical EGFR inhibition, and upregulation of genes identified as upregulated
cell viability / growth inhibition (Hs578T cells [2]): inhibit the growth of Hs578T and MDA-MB-231 cells in a dose dependent manner

MRNGMSLHDCLMKALKVRGLQPECCAVFRLLHEHKGKKARL (cysteines drawn unpaired) [RAF1-73]
cell viability / growth inhibition (MDA-MB-231 cells): inhibit the growth of Hs578T and MDA-MB-231 cells in a dose dependent manner
cell viability / growth inhibition (Hs578T cells [2]): inhibit the growth of Hs578T and MDA-MB-231 cells in a dose dependent manner

Where no end group is shown, it is not given here.
